According to PMC9911399, “Two distinct binding modes provide the RNA-binding protein RbFox with extraordinary sequence specificity”:
Numbering of substitutions follows the chain as printed; changes in the protein carry UniProt numbers. The list shows a part of the results.

B1: UACGAAC (DNA:RNA)
RNA: GGGAGACCGGAAUUCAGAUUGUCCUACGAACUUAAAUCCCGUCGUAGCCACCA
DNA 1: CAATCTGAATTCCGGTCTCCC
DNA 2: TGGTGGCTACGACGGGATT
B2: AAAACAC (DNA:RNA)
RNA: B1 RNA with U25A, C27A, G28A, A29C
DNA 1: CAATCTGAATTCCGGTCTCCC
DNA 2: TGGTGGCTACGACGGGATT
B3: AGCCGUG (DNA:RNA)
RNA: B1 RNA with U25A, A26G, G28C, A29G, A30U, C31G
DNA 1: CAATCTGAATTCCGGTCTCCC
DNA 2: TGGTGGCTACGACGGGATT
B4: CUCGUAG (DNA:RNA)
RNA: B1 RNA with U25C, A26U, A29U, C31G
DNA 1: CAATCTGAATTCCGGTCTCCC
DNA 2: TGGTGGCTACGACGGGATT
B5: ACGUUCA (DNA:RNA)
RNA: GGGAGACCGGAAUUCAGAUUGUCCACGUUCAUUAAAUCCCGUCGUAGCCACCA
DNA 1: CAATCTGAATTCCGGTCTCCC
DNA 2: TGGTGGCTACGACGGGATT
B6: CCCUAGC (DNA:RNA)
RNA: B1 RNA with U25C, A26C, G28U, A30G
DNA 1: CAATCTGAATTCCGGTCTCCC
DNA 2: TGGTGGCTACGACGGGATT
B7: UCGAACG (DNA:RNA)
RNA: B5 RNA with A25U, U28A, U29A, A31G
DNA 1: CAATCTGAATTCCGGTCTCCC
DNA 2: TGGTGGCTACGACGGGATT
B8: CAGCAAG (DNA:RNA)
RNA: B1 RNA with U25C, C27G, G28C, C31G
DNA 1: CAATCTGAATTCCGGTCTCCC
DNA 2: TGGTGGCTACGACGGGATT
B9: GAUUGCG (DNA:RNA)
RNA: B5 RNA with A25G, C26A, G27U, U29G, A31G
DNA 1: CAATCTGAATTCCGGTCTCCC
DNA 2: TGGTGGCTACGACGGGATT
B10: CUGUAAU (DNA:RNA)
RNA: B5 RNA with A25C, C26U, U29A, C30A, A31U
DNA 1: CAATCTGAATTCCGGTCTCCC
DNA 2: TGGTGGCTACGACGGGATT
B11: ACAUGAU (DNA:RNA)
RNA: B5 RNA with G27A, U29G, C30A, A31U
DNA 1: CAATCTGAATTCCGGTCTCCC
DNA 2: TGGTGGCTACGACGGGATT
B12: AUUUUAC (DNA:RNA)
RNA: B5 RNA with C26U, G27U, C30A, A31C
DNA 1: CAATCTGAATTCCGGTCTCCC
DNA 2: TGGTGGCTACGACGGGATT
B13: UGUAAGA (DNA:RNA)
RNA: B1 RNA with A26G, C27U, G28A, A30G, C31A
DNA 1: CAATCTGAATTCCGGTCTCCC
DNA 2: TGGTGGCTACGACGGGATT
B14: ACCGGCA (DNA:RNA)
RNA: B5 RNA with G27C, U28G, U29G
DNA 1: CAATCTGAATTCCGGTCTCCC
DNA 2: TGGTGGCTACGACGGGATT
B15: AGCCGGC (DNA:RNA)
RNA: B1 RNA with U25A, A26G, G28C, A29G, A30G
DNA 1: CAATCTGAATTCCGGTCTCCC
DNA 2: TGGTGGCTACGACGGGATT
B16: AGACUUU (DNA:RNA)
RNA: B5 RNA with C26G, G27A, U28C, C30U, A31U
DNA 1: CAATCTGAATTCCGGTCTCCC
DNA 2: TGGTGGCTACGACGGGATT
B17: AGGAGAC (DNA:RNA)
RNA: B5 RNA with C26G, U28A, U29G, C30A, A31C
DNA 1: CAATCTGAATTCCGGTCTCCC
DNA 2: TGGTGGCTACGACGGGATT
B18: AGGUGCC (DNA:RNA)
RNA: B5 RNA with C26G, U29G, A31C
DNA 1: CAATCTGAATTCCGGTCTCCC
DNA 2: TGGTGGCTACGACGGGATT
B19: CUAAGGC (DNA:RNA)
RNA: B1 RNA with U25C, A26U, C27A, G28A, A29G, A30G
DNA 1: CAATCTGAATTCCGGTCTCCC
DNA 2: TGGTGGCTACGACGGGATT
B20: CGCAGCU (DNA:RNA)
RNA: B5 RNA with A25C, C26G, G27C, U28A, U29G, A31U
DNA 1: CAATCTGAATTCCGGTCTCCC
DNA 2: TGGTGGCTACGACGGGATT
B21: AUUCGUA (DNA:RNA)
RNA: B5 RNA with C26U, G27U, U28C, U29G, C30U
DNA 1: CAATCTGAATTCCGGTCTCCC
DNA 2: TGGTGGCTACGACGGGATT
B22: CGACACG (DNA:RNA)
RNA: B5 RNA with A25C, C26G, G27A, U28C, U29A, A31G
DNA 1: CAATCTGAATTCCGGTCTCCC
DNA 2: TGGTGGCTACGACGGGATT
B23: GGGUCGC (DNA:RNA)
RNA: B5 RNA with A25G, C26G, U29C, C30G, A31C
DNA 1: CAATCTGAATTCCGGTCTCCC
DNA 2: TGGTGGCTACGACGGGATT
B24: AUUGGGA (DNA:RNA)
RNA: B5 RNA with C26U, G27U, U28G, U29G, C30G
DNA 1: CAATCTGAATTCCGGTCTCCC
DNA 2: TGGTGGCTACGACGGGATT
B25: UAUUUCU (DNA:RNA)
RNA: B5 RNA with A25U, C26A, G27U, A31U
DNA 1: CAATCTGAATTCCGGTCTCCC
DNA 2: TGGTGGCTACGACGGGATT
B26: CGAUUGC (DNA:RNA)
RNA: B5 RNA with A25C, C26G, G27A, C30G, A31C
DNA 1: CAATCTGAATTCCGGTCTCCC
DNA 2: TGGTGGCTACGACGGGATT
B27: GCAGUUA (DNA:RNA)
RNA: B5 RNA with A25G, G27A, U28G, C30U
DNA 1: CAATCTGAATTCCGGTCTCCC
DNA 2: TGGTGGCTACGACGGGATT
B28: UUCGCUA (DNA:RNA)
RNA: B1 RNA with A26U, A29C, A30U, C31A
DNA 1: CAATCTGAATTCCGGTCTCCC
DNA 2: TGGTGGCTACGACGGGATT
B29: UUCAUCC (DNA:RNA)
RNA: B1 RNA with A26U, G28A, A29U, A30C
DNA 1: CAATCTGAATTCCGGTCTCCC
DNA 2: TGGTGGCTACGACGGGATT
B30: GAUUACU (DNA:RNA)
RNA: B5 RNA with A25G, C26A, G27U, U29A, A31U
DNA 1: CAATCTGAATTCCGGTCTCCC
DNA 2: TGGTGGCTACGACGGGATT
B31: CGAAAGG (DNA:RNA)
RNA: B1 RNA with U25C, A26G, C27A, G28A, A30G, C31G
DNA 1: CAATCTGAATTCCGGTCTCCC
DNA 2: TGGTGGCTACGACGGGATT

Biological target: T1, RBFOX1 RRM RbFoxmut (Fox-RRM*) (Homo sapiens, UniProt Q9NWB1 109-208, R118D;E147R;N151S;E152T)
T1 sequence: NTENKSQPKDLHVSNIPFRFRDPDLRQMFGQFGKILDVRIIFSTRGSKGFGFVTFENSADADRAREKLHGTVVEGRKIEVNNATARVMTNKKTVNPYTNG
Test: EMSA; HiTS-Eq, 1 nM pool, 10 min; buffer printed only for the single-RNA assays: 10 mM Tris pH 7.5, 150 mM NaCl, 3.4 mM EDTA, 0.001% NP-40, 30 C
Details: tags: His6 N-terminal (pET28a); label: 5' 32P
Outline: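 Purified RbFox RRM, wild type or mutant, was incubated for 10 min in 50 µL with 1 nM of a 5′-radiolabelled RNA pool carrying 7 randomized nucleotides, whose flanks were annealed to DNA oligonucleotides, over a series of increasing protein concentrations. Unbound RNA was resolved on 8% native PAGE, cut out, reverse-transcribed, barcoded by PCR and sequenced on an Illumina HiSeq 2500. Relative association constants were derived from changes in read counts for each RNA species versus the control reaction and normalised to the cognate motif.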

Compared with B1, B2 is higher in binding signal: 0.0628 KA relative to UGCAUGU for the first, 0.0821 KA relative to UGCAUGU for the second.

Compared with B3, B4 is higher in binding signal: 0.109 KA relative to UGCAUGU for the first, 0.157 KA relative to UGCAUGU for the second.

First: B5
Second: B6
The binding signal of the first is higher: 0.13 KA relative to UGCAUGU for the first, 0.0978 KA relative to UGCAUGU for the second.

First: B7
Second: B8
The binding signal of the first is higher: 0.266 KA relative to UGCAUGU for the first, 0.0981 KA relative to UGCAUGU for the second.

First: B9
Second: B10
The binding signal of the first is higher: 0.204 KA relative to UGCAUGU for the first, 0.0942 KA relative to UGCAUGU for the second.

First: B11
Second: B12
The binding signal of the first is lower: 0.0851 KA relative to UGCAUGU for the first, 0.119 KA relative to UGCAUGU for the second.

Compared with B13, B14 is higher in binding signal: 0.0914 KA relative to UGCAUGU for the first, 0.1 KA relative to UGCAUGU for the second.

First: B15
Second: B16
The binding signal of the first is higher: 0.111 KA relative to UGCAUGU for the first, 0.063 KA relative to UGCAUGU for the second.

First: B17
Second: B18
The binding signal of the first is lower: 0.0904 KA relative to UGCAUGU for the first, 0.231 KA relative to UGCAUGU for the second.

First: B19
Second: B20
The binding signal of the first is lower: 0.0843 KA relative to UGCAUGU for the first, 0.1 KA relative to UGCAUGU for the second.

Compared with B21, B22 is lower in binding signal: 0.153 KA relative to UGCAUGU for the first, 0.0616 KA relative to UGCAUGU for the second.

First: B23
Second: B24
The binding signal of the first is higher: 0.149 KA relative to UGCAUGU for the first, 0.0849 KA relative to UGCAUGU for the second.

First: B25
Second: B26
The binding signal of the first is lower: 0.0848 KA relative to UGCAUGU for the first, 0.178 KA relative to UGCAUGU for the second.

First: B27
Second: B28
The binding signal of the first is lower: 0.0947 KA relative to UGCAUGU for the first, 0.109 KA relative to UGCAUGU for the second.

First: B29
Second: B30
The binding signal of the first is lower: 0.053 KA relative to UGCAUGU for the first, 0.104 KA relative to UGCAUGU for the second.

For B31, the binding signal was 0.0528 KA relative to UGCAUGU.
